Reference: the supplement of paper PMC7826260
This is one part of the list. One pool of 16,384 single-stranded DNAs met each Rep nickase domain in vitro (1 h at 37 °C, 3 µM enzyme); the outer parts of the 90-letter strands are left off. Uncut reads are compared with the no-enzyme pool on a log2 scale; uncut sequences lie near 0, cut ones below; no hit call is given. Counts are relative to all reads, so uncut sequences can rise above 0 when many others are cut.

Legend:
Experiment in all cases: uncleaved DNA left, log2 of reads against the no-enzyme library (log2 ratio); higher = less cleavage (more negative = more Rep cleavage of the k-mer); sequences stand for … in CTCGTCCG…ACCGGAGA
[1] = tested on: T1, Rep nickase domain of Muscovy duck circovirus
T1 sequence (Rep 1-111, printed without the tag): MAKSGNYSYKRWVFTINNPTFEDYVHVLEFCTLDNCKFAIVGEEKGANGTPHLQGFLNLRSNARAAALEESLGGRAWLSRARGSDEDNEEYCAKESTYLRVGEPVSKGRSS
Protocol: (§1)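 A pool of 90-nt single-stranded DNAs with seven random bases just before the constant AC of the nick site (name = the seven bases) was cut by 3 µM recombinant His6-SUMO-tagged Rep nickase domain (300 nM DNA, 50 mM HEPES pH 8.0, 50 mM NaCl, 1 mM MnCl2, 1 h, 37 °C, three replicates). Uncut DNA was amplified and sequenced.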

[2] = tested on: T2, Rep nickase domain of banana bunchy top virus
T2 sequence (Rep 1-94, printed without the tag): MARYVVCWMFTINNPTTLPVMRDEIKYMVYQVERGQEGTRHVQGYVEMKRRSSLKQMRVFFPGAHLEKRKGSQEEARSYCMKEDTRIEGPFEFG
Protocol: as §1

[3] = tested on: T3, Rep nickase domain of cabbage leaf curl virus
T3 sequence (Rep 1-116, printed without the tag): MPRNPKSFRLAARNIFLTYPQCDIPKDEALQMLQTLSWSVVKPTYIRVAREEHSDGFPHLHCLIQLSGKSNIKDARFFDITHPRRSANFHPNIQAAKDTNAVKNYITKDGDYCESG
Protocol: as §1

[4] = tested on: T4, Rep nickase domain of chickpea chlorotic dwarf virus
T4 sequence (Rep 1-124, printed without the tag): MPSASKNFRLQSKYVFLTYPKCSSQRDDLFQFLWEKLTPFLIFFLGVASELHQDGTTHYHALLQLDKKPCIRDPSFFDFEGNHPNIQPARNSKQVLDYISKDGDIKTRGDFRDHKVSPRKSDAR
Protocol: as §1

[5] = tested on: T5, Rep nickase domain of faba bean necrotic yellows virus
T5 sequence (Rep 1-98, printed without the tag): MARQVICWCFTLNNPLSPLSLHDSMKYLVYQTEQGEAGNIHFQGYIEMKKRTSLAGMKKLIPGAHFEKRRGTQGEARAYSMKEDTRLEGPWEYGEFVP
Protocol: as §1

[6] = tested on: T6, Rep nickase domain of maize striate mosaic virus
T6 sequence (Rep 1-117, printed without the tag): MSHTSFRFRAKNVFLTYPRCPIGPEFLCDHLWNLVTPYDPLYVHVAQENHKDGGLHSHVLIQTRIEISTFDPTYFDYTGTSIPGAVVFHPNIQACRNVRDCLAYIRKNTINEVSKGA
Protocol: as §1

[7] = tested on: T7, Rep nickase domain of porcine circovirus 2
T7 sequence (Rep 2-116, printed without the tag): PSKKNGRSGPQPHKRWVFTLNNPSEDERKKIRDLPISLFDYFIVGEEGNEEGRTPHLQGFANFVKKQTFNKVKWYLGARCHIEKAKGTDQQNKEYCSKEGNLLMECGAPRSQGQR
Protocol: as §1

[8] = tested on: T8, Rep nickase domain of tomato yellow leaf curl virus
T8 sequence (Rep 1-136, printed without the tag): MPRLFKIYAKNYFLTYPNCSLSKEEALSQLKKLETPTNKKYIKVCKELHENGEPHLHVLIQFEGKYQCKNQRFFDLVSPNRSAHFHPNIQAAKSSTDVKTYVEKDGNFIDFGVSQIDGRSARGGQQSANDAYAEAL
Protocol: as §1

[9] = tested on: T9, Rep nickase domain of wheat dwarf virus
T9 sequence (Rep 1-137, printed without the tag): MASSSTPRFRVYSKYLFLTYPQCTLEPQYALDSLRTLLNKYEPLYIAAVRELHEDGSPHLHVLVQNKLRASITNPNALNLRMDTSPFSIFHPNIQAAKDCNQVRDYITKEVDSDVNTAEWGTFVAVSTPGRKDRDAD
Protocol: as §1

Sequence | uncleaved DNA left (log2) [1] | uncleaved DNA left (log2) [2] | uncleaved DNA left (log2) [3] | uncleaved DNA left (log2) [4] | uncleaved DNA left (log2) [5] | uncleaved DNA left (log2) [6] | uncleaved DNA left (log2) [7] | uncleaved DNA left (log2) [8] | uncleaved DNA left (log2) [9]
CGGATAC | 0.0862 | 0.0706 | -0.0341 | 0.519 | 0.0545 | -0.113 | 0.273 | 0.0838 | 0.0482
CGCCTAG | -0.141 | -0.0121 | -0.642 | -0.405 | -0.151 | -0.836 | 0.0569 | 0.139 | -0.016
CGCGGGA | 0.0665 | -0.0221 | 0.253 | 0.332 | -0.0442 | 0.406 | 0.0792 | 0.0258 | -0.013
TGTACGG | 0.081 | 0.115 | 0.512 | 1.65 | 0.0538 | 2.16 | 0.219 | 0.0334 | 0.153
CGAGTCG | 0.0145 | -0.0483 | -0.467 | -0.381 | 0.0255 | -0.876 | 0.116 | 0.0948 | -0.0917
CGCGGTC | -0.225 | -0.255 | -0.218 | -0.333 | -0.228 | -0.703 | -0.116 | -0.154 | -0.24
GCTCCGA | -0.0543 | 0.0824 | 0.134 | 0.544 | -0.104 | 0.0962 | 0.119 | 0.0465 | 0.124
CCACGTT | 0.0557 | -0.166 | -0.88 | -2.36 | 0.115 | -0.826 | -0.531 | -0.0853 | -0.801
TGTTAGT | -2.86 | -0.189 | -0.0172 | -0.489 | -0.04 | -0.615 | -3.13 | 0.0533 | -0.0161
GTACACA | -0.00293 | 0.139 | 0.472 | 0.832 | -0.00428 | 1.57 | 0.172 | 0.0903 | 0.295
CGTTGAT | -0.0854 | -0.00112 | -0.0322 | 0.0754 | 0.0866 | -0.0614 | -1.14 | 0.0453 | -0.00242
TTGTGAC | 0.0979 | 0.138 | 0.0776 | 0.229 | 0.126 | -0.509 | 0.175 | 0.21 | 0.115
TGTATGC | 0.0286 | -0.0398 | -0.168 | -0.354 | 0.00235 | -0.957 | 0.0689 | 0.0287 | -0.107
TCTGCAC | -0.1 | -0.0832 | -0.333 | -0.703 | -0.0869 | -1.12 | 0.0198 | -0.196 | -0.265
AGCCTTA | 0.0651 | -0.0429 | 0.25 | 0.122 | -0.0838 | 0.487 | -0.52 | -0.00241 | 0.125
ATGAGTC | 0.0343 | -0.114 | -0.108 | -0.148 | -0.0637 | -0.789 | 0.0784 | -0.0694 | -0.0904
